Molecules are shown by their SMILES. About 2,200 (0.71%) of roughly 310,000 compounds showed an effect of 50% or more. Effects have a minus sign here. Some of the results follow.

Sequence of human ether-à-go-go-related gene (hERG) potassium channel (Q12809 whole entry, looked up): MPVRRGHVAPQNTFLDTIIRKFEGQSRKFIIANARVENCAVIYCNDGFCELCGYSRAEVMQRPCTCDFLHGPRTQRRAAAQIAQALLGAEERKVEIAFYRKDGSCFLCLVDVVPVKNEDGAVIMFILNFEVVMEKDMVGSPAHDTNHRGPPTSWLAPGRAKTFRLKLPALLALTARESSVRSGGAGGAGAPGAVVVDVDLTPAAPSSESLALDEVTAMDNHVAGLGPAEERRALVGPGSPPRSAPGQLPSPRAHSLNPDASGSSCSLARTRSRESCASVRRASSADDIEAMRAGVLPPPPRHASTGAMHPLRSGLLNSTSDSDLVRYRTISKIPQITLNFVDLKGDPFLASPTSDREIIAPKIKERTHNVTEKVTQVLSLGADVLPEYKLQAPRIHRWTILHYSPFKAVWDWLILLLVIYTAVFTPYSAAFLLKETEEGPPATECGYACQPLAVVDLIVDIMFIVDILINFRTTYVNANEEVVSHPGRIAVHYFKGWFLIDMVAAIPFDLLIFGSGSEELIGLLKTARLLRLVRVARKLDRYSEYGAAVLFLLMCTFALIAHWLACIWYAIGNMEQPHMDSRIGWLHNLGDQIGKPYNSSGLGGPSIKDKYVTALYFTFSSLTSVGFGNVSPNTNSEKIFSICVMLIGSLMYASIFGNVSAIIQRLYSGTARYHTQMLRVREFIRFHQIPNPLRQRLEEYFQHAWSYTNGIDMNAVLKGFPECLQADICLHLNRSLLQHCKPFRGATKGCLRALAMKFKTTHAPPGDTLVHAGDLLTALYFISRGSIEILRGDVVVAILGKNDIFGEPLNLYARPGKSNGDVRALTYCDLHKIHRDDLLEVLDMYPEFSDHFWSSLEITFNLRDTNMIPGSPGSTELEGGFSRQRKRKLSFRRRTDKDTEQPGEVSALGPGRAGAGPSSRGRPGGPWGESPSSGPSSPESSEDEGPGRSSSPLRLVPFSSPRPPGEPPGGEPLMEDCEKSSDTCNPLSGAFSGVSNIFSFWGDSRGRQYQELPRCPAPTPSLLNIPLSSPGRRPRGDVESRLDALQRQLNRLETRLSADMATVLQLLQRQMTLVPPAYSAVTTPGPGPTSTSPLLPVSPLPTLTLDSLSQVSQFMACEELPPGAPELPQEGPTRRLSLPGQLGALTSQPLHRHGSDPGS

The assay has as its target human ether-à-go-go-related gene (hERG) potassium channel (human, UniProt Q12809). The experiment in a line: primary screen, population patch clamp on CHO cells stably expressing hERG.
For the molecule `CCO.O=c1[nH]c(NNC(=S)NC2CCCCC2)nc2c1C1(CCCC1)Cc1ccccc1-2`, the “hERG current change (%, negative = inhibition) at 1uM” value stood at 12%.
Take `CC(OC(=O)CC1CC2CCC1C2)C(=O)Nc1ccc(N2CCOCC2)cc1` (centres unmarked): the “hERG current change (%, negative = inhibition) at 1uM” value stood at 1.87%.
On to `COc1cc(NC(=O)c2cccs2)c(C(=O)OCC(=O)NCc2ccco2)cc1OC`, for which the “hERG current change (%, negative = inhibition) at 1uM” value is given as 4.43%.
As to `OCCCNC(c1ccccc1)c1ccc(O)cc1` (centres unmarked), the “hERG current change (%, negative = inhibition) at 1uM” value amounted to 4.13%.
For `O=c1c2nnn(Cc3ccc(Cl)cc3)c2ncn1Cc1ccc(F)cc1` the value was 11.9%.
As for `O=S(=O)(NCc1cc(-c2ccccc2Cl)no1)c1ccc(Cl)cc1`, the “hERG current change (%, negative = inhibition) at 1uM” value came to 6.83%.
For `CSc1ccc(C(=O)C(C)(C)N2CCOCC2)cc1` the value was 0.0097%.
In the case of `COc1ccc(N(CC(=O)NCC(C)C)S(=O)(=O)c2ccccc2)cc1`, the “hERG current change (%, negative = inhibition) at 1uM” value is reported as 9.97%.
For `Clc1ccc2oc3c(Cl)ncnc3c2c1` the value was 7.83%; for `CC(C)c1nnc(NC(=O)CCC(=O)N2CCN(c3ccc(Cl)cc3)CC2)s1`, 2.97%; for `COc1cccc(CN(C)CC(=O)Nc2ccccc2C(C)C)c1.O=C(O)C(=O)O`, 9.6%.
For `COc1ccc(-c2noc(C3CCCN(C(=O)c4ccccc4OC)C3)n2)cc1` (centres unmarked), the “hERG current change (%, negative = inhibition) at 1uM” value was 14.5%.
For `CCc1ccc(NC(=O)C2CCN(C(=O)N3CCOc4ccccc43)CC2)cc1` the value was 1.93%.
With `Cc1ccccc1NC(=O)CC(=O)c1ccccc1`, the “hERG current change (%, negative = inhibition) at 1uM” value is listed as 15.2%.
Regarding `Cc1nc2c(Cl)cccc2c2c1CC(CBr)O2` (centres unmarked), the “hERG current change (%, negative = inhibition) at 1uM” value came to 8.11%.
`CCOC(=O)c1cnc2c(C)cccc2c1Nc1cccc(C(=O)O)c1.Cl`: the “hERG current change (%, negative = inhibition) at 1uM” value is 11.3%.
Take `COc1ccccc1/C=C/C(=O)NCC(=O)N/N=C(/C)c1ccco1`: the “hERG current change (%, negative = inhibition) at 1uM” value was 11.6%.
The value for `O=C(CNS(=O)(=O)c1cccs1)N1CCCCC1` was 14.2%; that for `COc1ccccc1NC(=O)CSc1nc(N)c(-c2ccccc2)c(=O)[nH]1` was 17.4%.
The value for `Cn1c(SCC(N)=O)nnc1-c1ccc(S(=O)(=O)N2CCCC2)cc1` was 17.2%; that for `O=C(NCc1cccs1)C(Cc1ccccc1)NS(=O)(=O)c1cccs1` (centres unmarked) was -3.51%; that for `COc1ccc(CN2CCCC(CO)(Cc3cccc(Cl)c3)C2)cc1OC` (centres unmarked) was -29.2%.
Consider `O=C(CSCc1ccc(Cl)cc1)Nc1ccccc1O`, for which the “hERG current change (%, negative = inhibition) at 1uM” value was 18.2%.
The value for `Cc1c(C(N)=O)c(N)c(C(=O)c2ccccc2)n1-c1ccccc1` was 9.73%; that for `O=C(CCNC(=O)C1CCN(S(=O)(=O)c2ccc(F)cc2)CC1)NCc1ccccc1Cl` was 15.1%; that for `CCN(CC)C(=O)c1ccc(NC(=S)NC(=O)CCc2ccccc2)cc1` was 8.92%.
Take `Cc1nn2c(N3CCOCC3)cc(C(C)(C)C)nc2c1-c1ccccc1`: the “hERG current change (%, negative = inhibition) at 1uM” value was 12%.
Take `O=C1CCC(C(=O)N2CCC(O)(c3ccccc3)CC2)CN1CCc1ccccc1` (centres unmarked): the “hERG current change (%, negative = inhibition) at 1uM” value was determined as 6%.
The value for `Cc1ccc(CNC(=O)CSc2nc3ccsc3c(=O)n2Cc2ccc(C(=O)O)cc2)cc1` was 12.8%; that for `COCCN(CCOC)C(=O)c1sc2nc(-c3ccccc3)cn2c1C` was -1.16%.
For the molecule `O=C(NC1CCCCCC1)C1CCC(=O)N(Cc2ccccc2F)C1` (centres unmarked), the “hERG current change (%, negative = inhibition) at 1uM” value came out at 16.8%.
As to `Cn1c(=O)[nH]c(=O)c2c1nc(NCc1ccccc1)n2CC(O)c1ccccc1` (centres unmarked), the “hERG current change (%, negative = inhibition) at 1uM” value is on record as 4.24%.
On to `CC1CCc2cc(F)ccc2N1C(=O)c1cccs1` (centres unmarked), for which the “hERG current change (%, negative = inhibition) at 1uM” value turned out to be 9.33%.
Take `O=C1N/C(=C\c2nc3ccccc3s2)c2ccccc21`: the “hERG current change (%, negative = inhibition) at 1uM” value is 9.48%.
For the molecule `COC(=O)[C@H]1[C@@H](C)N(Cc2ccccc2)C(=O)N[C@H]1c1cccc(C(F)(F)F)c1`, the “hERG current change (%, negative = inhibition) at 1uM” value is recorded as 7.06%.
On to `CCN(CC)CCCN=C(C)C1=C(O)c2ccccc2C1=O`, for which the “hERG current change (%, negative = inhibition) at 1uM” value is listed as -1.93%.
The value for `Cc1ccc(C(=O)/C=C/c2ccc(F)cc2)o1` was 7.74%.
On to `C=CCn1c(Cc2cccs2)nnc1SCC(=O)Nc1cccc(OC)c1`, for which the “hERG current change (%, negative = inhibition) at 1uM” value worked out at 7.14%.
Regarding `CCn1c2ccccc2c2cc(NC(=O)COC(=O)c3ccccc3O)ccc21`, the “hERG current change (%, negative = inhibition) at 1uM” value was determined as 15%.
For `CCOC(=O)c1[nH]cnc1C(=O)NC1CCN(C(=O)OC(C)(C)C)CC1` the value was 16.6%; for `O=C(COC(=O)c1ccccc1)Nc1ccc(Cl)cc1C(=O)c1ccccc1`, 10.7%; for `CCC(=O)N1CCc2cc(S(=O)(=O)NCCC(=O)N3CC=C(c4ccccc4)CC3)ccc21`, 3.12%.
For `O=c1c2ccccc2ncn1CCCCOc1ccccc1F` the value was 15.2%.
For `O=C(c1ccc2c(c1)OCO2)N1CCN(c2ccccn2)CC1` the value was 10.1%; for `O=C(NC1CC1)c1sc2ccccc2c1Cl`, 22.4%.
Turning to `CCOc1cc(C)c(Cl)cc1S(=O)(=O)NCc1ccco1`, the “hERG current change (%, negative = inhibition) at 1uM” value was found to be 8.22%.
The value for `CCCCCCCNC(=O)C1(CC2CC(c3cccc(Br)c3)=NO2)CCN(C(=O)c2ccccc2)CC1` (centres unmarked) was 0.135%.
`COCC(=O)n1nc(-c2ccccc2)nc1NCc1ccc(N(C)C)cc1`: the “hERG current change (%, negative = inhibition) at 1uM” value is 2.05%.
For `COc1ccccc1N1CCN(CCCCOc2c(OC)cccc2OC)CC1.O=C(O)C(=O)O` the value was -38.6%.
`CCC1Oc2ccc(C)cc2N(CC(=O)NCc2ccccc2OC)C1=O` (centres unmarked): the “hERG current change (%, negative = inhibition) at 1uM” value is 2.27%.
The value for `COCCn1cnc2c1c(=O)n(CC#N)c(=O)n2Cc1ccccc1` was 7.24%.
With `Cc1c(O)nc(SCC(=O)Nc2cccc(C(F)(F)F)c2)n(-c2ccccc2)c1=O`, the “hERG current change (%, negative = inhibition) at 1uM” value was 15.4%.
For `O=C(c1cc(COc2ccc3c(c2)CCCC3)on1)N1CCCC1`, the “hERG current change (%, negative = inhibition) at 1uM” value turned out to be 11.6%.
Regarding `CCC1=C(OC(=O)N(CC)CC)N2C(=O)OC(=NCCOC)[C@]2(Cc2ccccc2)[C@H]2C1=CC[C@H]1C(=O)NC(=O)[C@H]12`, the “hERG current change (%, negative = inhibition) at 1uM” value was determined as 13.4%.
For `O=C(Cc1ccccc1)NCCSCc1ccccc1`, the “hERG current change (%, negative = inhibition) at 1uM” value is reported as -1.5%.
As for `COc1ccc(OC)c(NC(=O)CSc2nc3[nH]c(=O)cc(O)c3s2)c1`, the “hERG current change (%, negative = inhibition) at 1uM” value is reported as 14.7%.
On to `CCOC(=O)N/N=C/c1ccc(N(CC)CC)cc1O`, for which the “hERG current change (%, negative = inhibition) at 1uM” value is 15.4%.
On to `Cc1ccc(S(=O)(=O)/N=C(\c2ccccc2)N(C)S(=O)(=O)c2ccc(C)cc2)cc1`, for which the “hERG current change (%, negative = inhibition) at 1uM” value was found to be 15.6%.
For `COc1cc(OC)c(CN2CCCN(C)CC2)cc1Br` the value was 15.1%.
For `O=C(COc1ccccc1)Nc1nnc(-c2ccc(Cl)cc2)o1` the value was 8.01%; for `CCCCN(C)CCC(=O)Nc1ccc(OC)cc1OC`, 15.1%; for `Cc1ccc(C(=O)NC2CCCc3ccccc32)cc1[N+](=O)[O-]` (centres unmarked), 9.53%.
The value for `O=C(Nc1ccc(OC(F)(F)C(F)F)c(NC(=O)c2ccc(F)cc2)c1)c1ccc(F)cc1` was 15.3%; that for `CCOc1ccccc1NC(=O)CN1C(=O)C(=O)N(Cc2ccco2)C1=O` was 4.49%; that for `CCCN(C(=O)c1nc2nc(C)cc(C)n2n1)c1c(N)n(Cc2ccccc2)c(=O)[nH]c1=O` was 15.7%.
With `O=C(c1ccccc1)N1CCC(O)(c2cccnc2)CC1`, the “hERG current change (%, negative = inhibition) at 1uM” value was 18%.
For `O=C(C1CCN(S(=O)(=O)c2cccs2)CC1)N1CCN(c2ccccc2O)CC1`, the “hERG current change (%, negative = inhibition) at 1uM” value is given as 3.49%.
For the molecule `COc1ccc(NC(=O)/C=C/c2ccco2)cn1`, the “hERG current change (%, negative = inhibition) at 1uM” value was determined as 11.1%.
The value for `O=C(NCc1ccccc1)/C(=C\c1ccccc1)NC(=O)c1ccco1` was 11.9%; that for `O=C(CNC(=O)c1ccc(Cl)cc1)OCC(=O)N1CCCC1` was 16.1%; that for `CN(C(=O)Cc1ccccc1)n1cnnc1` was 17.8%.
For `Cc1ccc(C)c(NC(=S)N2CCCCC2CO)c1` (centres unmarked) the value was 11%; for `Cn1c(N)c(C(=O)c2ccc(F)cc2F)c(=O)n(C)c1=O`, 7.34%.
The value for `O=C(NCc1ccco1)C(c1ccco1)N(Cc1cccs1)C(=O)Cn1nnc2ccccc21` (centres unmarked) was 15.8%; that for `COCCNC(=S)N(CCc1c(C)[nH]c2ccc(OC)cc12)Cc1cccnc1` was 4.12%.
Regarding `CCCC(CCC)c1nnc(NC(=O)c2ccco2)s1`, the “hERG current change (%, negative = inhibition) at 1uM” value was 15%.
On to `CC1CC(C(F)(F)F)n2ncnc2N1` (centres unmarked), for which the “hERG current change (%, negative = inhibition) at 1uM” value is listed as -4.81%.
In the case of `COc1ccc(N2C(=O)CC(N(CCc3ccccc3)C(=O)c3ccccc3)C2=O)cc1` (centres unmarked), the “hERG current change (%, negative = inhibition) at 1uM” value turned out to be 12%.
Consider `COCCCN(C(=S)Nc1c(C)cc(C)cc1C)C(C)c1ccccn1` (centres unmarked), for which the “hERG current change (%, negative = inhibition) at 1uM” value came out at 6.24%.
For `CCOC(=O)c1nc2ccccc2s1` the value was 5.34%; for `O=C(CSc1nc2cc(Cl)ccc2s1)c1cc2ccccc2o1`, 10.8%; for `CCOC(=O)C1=C(C)N=c2s/c(=C/c3ccc(OCC(=O)O)c(OC)c3)c(=O)n2C1c1ccc(Cl)cc1` (centres unmarked), 3.8%.
For `Cc1c(Cc2ccccc2)c(=O)oc2cc(O)cc(O)c12` the value was 9.42%.
The value for `COc1ccc(C(C)(C)C)cc1NC(=O)CCCN1C(=O)NC(C)(C)C1=O` was 11.6%; that for `Cn1ccc(C(=O)OCC(=O)Nc2cccc3ccccc23)n1` was 32.4%.
For `CCN(CC)CC(=O)NCC1(c2ccccc2)CCCC1`, the “hERG current change (%, negative = inhibition) at 1uM” value came to 8.45%.
For `CSCCC(NS(=O)(=O)c1ccc(Br)cc1)C(=O)OCC(=O)NC1CC1` (centres unmarked) the value was 11.9%; for `CCCOC(=O)c1c(NC(=O)C2CCCO2)sc(C(=O)OC)c1C` (centres unmarked), 2.45%; for `CCOc1ccc(NC(=O)C(C)N2C(=O)c3ccccc3S2(=O)=O)cc1` (centres unmarked), 4.83%.
